Data: the RNAGym collection of RNA variant scans (doi:10.1073/pnas.2313332121)
This sample is rich in variants without activity.

B1: TPR 5TU (parent)
chain: GGAUCUUCUCGAUCUAACAAAAAAGACAAAUCUGCCACAAAGCUUGAGAGCAUCUUCGGAUGCAGAGGCGGCAGCCUUCGGUGGCGCGAUAGCGCCAACGUUCUCAACUAUGACACGCAAAACGCGUGCUCCGUUGAAUGGAGUUUAUCAUG

Variants of: B1
Assay: polymerase ribozyme fitness, log enrichment relative to wild type (log ratio); higher = more active; in vitro selection for triplet polymerase activity
How it was run: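 Only genotypes with ≥10 input reads and ≥1 read per output were kept after Illumina sequencing of input and output libraries. These libraries were PCR-built, transcribed mutants of each subunit of a heterodimeric triplet polymerase ribozyme, each put through one triplicate in vitro selection round with frozen incubation at −7 °C, gel excision of extended constructs, streptavidin-bead capture and RT-PCR. Fitness is a logarithmic ratio of genotype enrichment to wild-type enrichment, from inverse-variance-weighted replicate averages, with the logarithm in base 2.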

Variant | polymerase ribozyme fitness (log ratio)
GGAUCUUCUCGAUCUAACAAAAAAGACAAAUCUGCCACAAAGCUUGAGAGCAUCUUCGGAUGCAGAGGCGGCAGCCUUCGGUGGCGCGAUAACGCCAACGUUCUCAACUAUGACACGCAAAACGCGUGCUCCGGUGAAUGGAGAUUAUCAUG [G92A U134G U144A] | ≤ -4.2
GGAUCUUCUCGAUCUAACAAAAAAGACAAAUCUGCCACAAAGCUUGAGAGCAUCUUCGGAUGCAGAGGCGGCAGCCUUCGGUGGCGCGAUACCGCCAAAGUUCUCAACUAUGACACGCAAAACGCGUGCUCCGUUGACUGGAGUUUAUCAUG [G92C C99A A138C] | ≤ -4.2
GGAUCUUCUCGAUCUAACAAAAAAGACAAAUCUGCCACAAAGCUUGAGAGCAUCUUCGGAUGCAGAGGCGGCAGCCUUCGGUGGCGCGAUACCGCCAACGUUCUCAACUAUGACACGCAAAACUCGUGUUCCGUUGAGGGGAGUUUAUCAUG [G92C G124U C129U A138G U139G] | ≤ -4.2
GGAUCUUCUCGAUCUAACAAAAAAGACAAAUCUGCCACAAAGCUUGAGAGCAUCUUCGGAUGCAGAGGCGGCAGCCUUCGGUGGCGCGAUACCGCCAGCGGUCUCAACUGUGACACGCAGAACGCGUGCUCCCGUGAAUGCAGUUUGUCAUG [G92C A98G U101G A110G A120G G133C U134G G141C A147G] | ≤ -4.2
GGAUCUUCUCGAUCUAACAAAAAAGACAAAUCUGCCACAAAGCUUGAGAGCAUCUUCGGAUGCAGAGGCGGCAGCCUUCGGUGGCGCGAUAACGCCAACUUUCUCAACUAUGACACGCAAAACGCGUGCUCCGUUGACUGGAGUUUAUCAUG [G92A G100U A138C] | ≤ -4.2
GGAUCUUCUCGAUCUAACAAAAAAGACAAAUCUGCCACAAAGCUUGAGAGCAUCUUCGGAUGCAGAGGCGGCAGCCUUCGGUGGCGCGAUACCGACAACGUUCUCAACUAUGACACGCAAAACGCGUGCUCCGUUGAAUGGAGUUUAUCAUG [G92C C95A] | -2.12
GGAUCUUCUCGAUCUAACAAAAAAGACAAAUCUGCCACAAAGCUUGAGAGCAUCUUCGGAUGCAGAGGCGGCAGCCUUCGGUGGCGCGAUACCGCCAACGUUCCCAACUAUGACACGCAAAACGCGUGCUCCGUUGAAUGGAGUUUAUCAUG [G92C U104C] | -1.35
GGAUCUUCUCGAUCUAACAAAAAAGACAAAUCUGCCACAAAGCUUGAGAGCAUCUUCGGAUGCAGAGGCGGCAGCCUUCGGUGGCGCGAUACCGCCAACGUUCUCAACUAUGCCACGCAAAACGCGUGCUCAGUUGAAUGGAGUUUAUCAUG [G92C A113C C132A] | ≤ -4.2
GGAUCUUCUCGAUCUAACAAAAAAGACAAAUCUGCCACAAAGCUUGAGAGCAUCUUCGGAUGCAGAGGCGGCAGCCUUCGGUGGCGCGAUAACGCCAACGUUCUCAACUAUGACACGCAAAACGCGUGCUCCGUUGAAUGGAUUUUAUCCUG [G92A G143U A150C] | ≤ -4.2
GGAUCUUCUCGAUCUAACAAAAAAGACAAAUCUGCCACAAAGCUUGAGAGCAUCUUCGGAUGCAGAGGCGGCAGCCUUCGGUGGCGCGAUAACGCCAACGUUCUCAACUAUGACACGCAAAACGCGUGCUCCUUUGAAUGGAGGUUAUCAUG [G92A G133U U144G] | ≤ -4.2
GGAUCUUCUCGAUCUAACAAAAAAGACAAAUCUGCCACAAAGCUUGAGAGCAUCUUCGGAUGCAGAGGCGGCAGCCUUCGGUGGCGCGAUAUCGCCAACGUUCUCAACUAUGACACGCAAAACGCGUGCUCCGUUGACUGGAGUUUAUCAUG [G92U A138C] | -3.95
GGAUCUUCUCGAUCUAACAAAAAAGACAAAUCUGCCACAAAGCUUGAGAGCAUCUUCGGAUGCAGAGGCGGCAGCCUUCGGUGGCGCGAUAACGCCAACGUUCUCAACUAUGACACGCAAAACGCGUGCUCCGAUGAAUGGAGUUUAUCAUG [G92A U134A] | ≤ -4.2
GGAUCUUCUCGAUCUAACAAAAAAGACAAAUCUGCCACAAAGCUUGAGAGCAUCUUCGGAUGCAGAGGCGGCAGCCUUCGGUGGCGCGAUAACGCCAACGUUCUCAACUAUGACACGCAAAACGCGGGCUCCGUUGAAUGGAGUUUAUCAUG [G92A U127G] | -3.27
GGAUCUUCUCGAUCUAACAAAAAAGACAAAUCUGCCACAAAGCUUGAGAGCAUCUUCGGAUGCAGAGGCGGCAGCCUUCGGUGGCGCGAUACCGCCAGCGUUCUCAACUAUGACUCGCAAAACGCGUGCUCCGUUGAAUGGAGUUUAUCAUG [G92C A98G A115U] | -2.44
GGAUCUUCUCGAUCUAACAAAAAAGACAAAUCUGCCACAAAGCUUGAGAGCAUCUUCGGAUGCAGAGGCGGCAGCCUUCGGUGGCGCGAUAUGGCCAAUGUUCUCAACUAUGGCACGCAAAACGCGUGCUCCGUUGAAUGGAGUUUAUCAUG [G92U C93G C99U A113G] | ≤ -4.2
GGAUCUUCUCGAUCUAACAAAAAAGACAAAUCUGCCACAAAGCUUGAGAGCAUCUUCGGAUGCAGAGGCGGCAGCCUUCGGUGGCGCGAUAUCGCAAACGUUCUCAACUAUGACACGCAAAACGCGCGCUCCGUUGAAUGGAGUCUCUCAUG [G92U C96A U127C U145C A147C] | ≤ -4.2
GGAUCUUCUCGAUCUAACAAAAAAGACAAAUCUGCCACAAAGCUUGAGAGCAUCUUCGGAUGCAGAGGCGGCAGCCUUCGGUGGCGCGAUACCGCCAACGGUCUCAACUAUGACACGCAAAACGCGUGCUCCGUUGAAUGGAGUUUAUCAUG [G92C U101G] | -0.874
GGAUCUUCUCGAUCUAACAAAAAAGACAAAUCUGCCACAAAGCUUGAGAGCAUCUUCGGAUGCAGAGGCGGCAGCCUUCGGUGGCGCGAUAUUGCCAACGUUCUCAACUAUGACACGCAAAACGCGUGCUCCGUUGAAUGGAGUUUAUCAUG [G92U C93U] | -2.13
GGAUCUUCUCGAUCUAACAAAAAAGACAAAUCUGCCACAAAGCUUGAGAGCAUCUUCGGAUGCAGAGGCGGCAGCCUUCGGUGGCGCGAUAUCGCCAACGUUCUCAUCUAUGACACGCAAAACGCGUGCUCCGUUGAAUGGAGUUUAUCAUG [G92U A107U] | -3.2

Variant | polymerase ribozyme fitness (log ratio)
GGAUCUUCUCGAUCUAACAAAAAAGACAAAUCUGCCACAAAGCUUGAGAGCAUCUUCGGAUGCAGAGGCGGCAGCCUUCGGUGGCGCGAUAACGCCAACGUUCUCAACUAUGACACGCAAAACGCGUGCUCCGUUGAAUGGAGUUUAACAUG [G92A U148A] | ≤ -4.2
GGAUCUUCUCGAUCUAACAAAAAAGACAAAUCUGCCACAAAGCUUGAGAGCAUCUUCGGAUGCAGAGGCGGCAGCCUUCGGUGGCGCGAUAUCGCCAACGUUCUCAACUAUGACACGCAAGACGCGUGCUCCGUUGAAUGGACUGUAUCAUG [G92U A121G G143C U145G] | -3.44
GGAUCUUCUCGAUCUAACAAAAAAGACAAAUCUGCCACAAAGCUUGAGAGCAUCUUCGGAUGCAGAGGCGGCAGCCUUCGGUGGCGCGAUACCACCAACGUUCUCAACUAUGACACGCAAAACGCGUGCUCCGUUGAAUGGAGUUUAUCAUG [G92C G94A] | -2.95
GGAUCUUCUCGAUCUAACAAAAAAGACAAAUCUGCCACAAAGCUUGAGAGCAUCUUCGGAUGCAGAGGCGGCAGCCUUCGGUGGCGCGAUAACGCCAACGUUCGCAACUGUGACACGCAAAACGCGUGCUCCGUUGAAUGGAGUUUAUCAUG [G92A U104G A110G] | -3.8
GGAUCUUCUCGAUCUAACAAAAAAGACAAAUCUGCCACAAAGCUUGAGAGCAUCUUCGGAUGCAGAGGCGGCAGCCUUCGGUGGCGCGAUAACGCCAACGUUCUCAACUAUGACACGCAAAACGCGUGCUCCUUUGAAUGGACUUUAUCAUG [G92A G133U G143C] | ≤ -4.2
GGAUCUUCUCGAUCUAACAAAAAAGACAAAUCUGCCACAAAGCUUGAGAGCAUCUUCGGAUGCAGAGGCGGCAGCCUUCGGUGGCGCGAUAUCGCCAACGUUCUCAACUAUGCCACGCAAAACGCGUGCUCCGUUGAAUGGAGUUUAUCAUG [G92U A113C] | -2.78
GGAUCUUCUCGAUCUAACAAAAAAGACAAAUCUGCCACAAAGCUUGAGAGCAUCUUCGGAUGCAGAGGCGGCAGCCUUCGGUGGCGCGAUAACGCCAACGUUCACAACGAUGACACGCAAAACGCGUGCUCCGUUGAAUGGAGAUUAUCAUG [G92A U104A U109G U144A] | ≤ -4.2
GGAUCUUCUCGAUCUAACAAAAAAGACAAAUCUGCCACAAAGCUUGAGAGCAUCUUCGGAUGCAGAGGCGGCAGCCUUCGGUGGCGCGAUAACGCCAACGUUCUCAACUAUGACACGCAAAACCCGUGCUCCGUUGAAUGGAGUUUAUCAUG [G92A G124C] | -3.03
GGAUCUUCUCGAUCUAACAAAAAAGACAAAUCUGCCACAAAGCUUGAGAGCAUCUUCGGAUGCAGAGGCGGCAGCCUUCGGUGGCGCGAUACCGCCAACGGUCUCAACUAUGACACGCAAAACGCGUGCUACGUUGAAUGGAGUUUAUCAUG [G92C U101G C131A] | -3.96
GGAUCUUCUCGAUCUAACAAAAAAGACAAAUCUGCCACAAAGCUUGAGAGCAUCUUCGGAUGCAGAGGCGGCAGCCUUCGGUGGCGCGAUACCGCCAACGUUCUCAACUAUGACACGCAAAACGCGUGCUCCGUCGAAUGGAGUUUAUCAUG [G92C U135C] | -2.88
GGAUCUUCUCGAUCUAACAAAAAAGACAAAUCUGCCACAAAGCUUGAGAGCAUCUUCGGAUGCAGAGGCGGCAGCCUUCGGUGGCGCGAUAUCGCCAACGUUCUCAACUCUGACACGCAAAACGCGUGCUCCGUUGAAUUGAGUUUAUCAUG [G92U A110C G140U] | ≤ -4.2
GGAUCUUCUCGAUCUAACAAAAAAGACAAAUCUGCCACAAAGCUUGAGAGCAUCUUCGGAUGCAGAGGCGGCAGCCUUCGGUGGCGCGAUACCGCCAACGUUCGCAACUAUGACAUGCAAUACGCGUGUUCCGUUUAAUGGAGUUUAUCAUG [G92C U104G C116U A121U C129U G136U] | ≤ -4.2
GGAUCUUCUCGAUCUAACAAAAAAGACAAAUCUGCCACAAAGCUUGAGAGCAUCUUCGGAUGCAGAGGCGGCAGCCUUCGGUGGCGCGAUAACGCCAACGUUCUCAACUAUGACACGCAAAACGCGUGCUCCAUUGAAUGGAGUUUAUCAUG [G92A G133A] | ≤ -4.2
GGAUCUUCUCGAUCUAACAAAAAAGACAAAUCUGCCACAAAGCUUGAGAGCAUCUUCGGAUGCAGAGGCGGCAGCCUUCGGUGGCGCGAUACCGCCAACGUUCUCAACUAUGACACGCAAAACGCGUGCUCCGUUGAAUGGAGUUUACCAUG [G92C U148C] | -2.56
GGAUCUUCUCGAUCUAACAAAAAAGACAAAUCUGCCACAAAGCUUGAGAGCAUCUUCGGAUGCAGAGGCGGCAGCCUUCGGUGGCGCGAUACCGCCAACGUUCUCAACUAUGACACGCAAAACGCGUGCUCCGUUGAAUGGAGUUUAACAUG [G92C U148A] | ≤ -4.2
GGAUCUUCUCGAUCUAACAAAAAAGACAAAUCUGCCACAAAGCUUGAGAGCAUCUUCGGAUGCAGAGGCGGCAGCCUUCGGUGGCGCGAUAACGCCAACGUUCUCAACUAUGACACGCAAAACGCGUGCUCCGUUGAAUGCAGUUUUUCAUG [G92A G141C A147U] | -3.44
GGAUCUUCUCGAUCUAACAAAAAAGACAAAUCUGCCACAAAGCUUGAGAGCAUCUUCGGAUGCAGAGGCGGCAGCCUUCGGUGGCGCGAUACCGCCAACGUUCUCAACUAUGACACGCAAAACGCGUGCUCCGGUGAAUGGAGUUUAUCAUG [G92C U134G] | -1.68
GGAUCUUCUCGAUCUAACAAAAAAGACAAAUCUGCCACAAAGCUUGAGAGCAUCUUCGGAUGCAGAGGCGGCAGCCUUCGGUGGCGCGAUACCGCCAACGUUCUCAACUAUGACACGCAAAACGCGUGCUCCGUUGAAUGCAGUUUAUCAUG [G92C G141C] | -0.623
GGAUCUUCUCGAUCUAACAAAAAAGACAAAUCUGCCACAAAGCUUGAGAGCAUCUUCGGAUGCAGAGGCGGCAGCCUUCGGUGGCGCGAUACCGCCAACGUUCUCAGCUAUGACACGCACAACGCGCGCUCCGUUGAAUGGAGUUUAUCAUA [G92C A107G A120C U127C G152A] | ≤ -4.2
